Legend:
[1] = molecular target: LRP6 on HEK293/HEK293T reporter cells (UniProt O75581 20-1613, limits assumed); experiment: cell-based or functional assay
FZD7 CRD, Fc-tagged = FZD7 CRD, Fc-tagged (human, UniProt O75084 partial chain); experiment: BLI (Octet): FZD-Fc captured on the sensor, 100 nM binder, 300 s association, 300 s dissociation
FZD5 CRD, Fc-tagged = molecular target: T1, FZD5 CRD, Fc-tagged (human, UniProt Q13467 27-167); experiment: as above
T1 construct: domain: CRD; Bought; also called FZD5 ECD; not shown: Fc tag of the purchased fusion
T1 sequence (looked up): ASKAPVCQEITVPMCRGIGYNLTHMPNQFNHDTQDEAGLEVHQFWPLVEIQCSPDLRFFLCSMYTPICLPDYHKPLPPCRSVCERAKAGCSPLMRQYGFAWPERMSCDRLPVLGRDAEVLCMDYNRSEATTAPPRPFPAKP

FZD4 CRD, Fc-tagged = molecular target: T2, FZD4 CRD, Fc-tagged (human, UniProt Q9ULV1 37-180); experiment: as above
T2 construct: domain: CRD; Bought; also called FZD4 ECD; not shown: Fc tag of the purchased fusion
T2 sequence (looked up): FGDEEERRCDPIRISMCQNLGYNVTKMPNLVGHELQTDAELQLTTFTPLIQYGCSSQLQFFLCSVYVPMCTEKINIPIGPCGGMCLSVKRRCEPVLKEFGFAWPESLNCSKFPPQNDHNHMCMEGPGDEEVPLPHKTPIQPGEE

Chain of UniProt O75581 (O75581 20-1613 limits assumed): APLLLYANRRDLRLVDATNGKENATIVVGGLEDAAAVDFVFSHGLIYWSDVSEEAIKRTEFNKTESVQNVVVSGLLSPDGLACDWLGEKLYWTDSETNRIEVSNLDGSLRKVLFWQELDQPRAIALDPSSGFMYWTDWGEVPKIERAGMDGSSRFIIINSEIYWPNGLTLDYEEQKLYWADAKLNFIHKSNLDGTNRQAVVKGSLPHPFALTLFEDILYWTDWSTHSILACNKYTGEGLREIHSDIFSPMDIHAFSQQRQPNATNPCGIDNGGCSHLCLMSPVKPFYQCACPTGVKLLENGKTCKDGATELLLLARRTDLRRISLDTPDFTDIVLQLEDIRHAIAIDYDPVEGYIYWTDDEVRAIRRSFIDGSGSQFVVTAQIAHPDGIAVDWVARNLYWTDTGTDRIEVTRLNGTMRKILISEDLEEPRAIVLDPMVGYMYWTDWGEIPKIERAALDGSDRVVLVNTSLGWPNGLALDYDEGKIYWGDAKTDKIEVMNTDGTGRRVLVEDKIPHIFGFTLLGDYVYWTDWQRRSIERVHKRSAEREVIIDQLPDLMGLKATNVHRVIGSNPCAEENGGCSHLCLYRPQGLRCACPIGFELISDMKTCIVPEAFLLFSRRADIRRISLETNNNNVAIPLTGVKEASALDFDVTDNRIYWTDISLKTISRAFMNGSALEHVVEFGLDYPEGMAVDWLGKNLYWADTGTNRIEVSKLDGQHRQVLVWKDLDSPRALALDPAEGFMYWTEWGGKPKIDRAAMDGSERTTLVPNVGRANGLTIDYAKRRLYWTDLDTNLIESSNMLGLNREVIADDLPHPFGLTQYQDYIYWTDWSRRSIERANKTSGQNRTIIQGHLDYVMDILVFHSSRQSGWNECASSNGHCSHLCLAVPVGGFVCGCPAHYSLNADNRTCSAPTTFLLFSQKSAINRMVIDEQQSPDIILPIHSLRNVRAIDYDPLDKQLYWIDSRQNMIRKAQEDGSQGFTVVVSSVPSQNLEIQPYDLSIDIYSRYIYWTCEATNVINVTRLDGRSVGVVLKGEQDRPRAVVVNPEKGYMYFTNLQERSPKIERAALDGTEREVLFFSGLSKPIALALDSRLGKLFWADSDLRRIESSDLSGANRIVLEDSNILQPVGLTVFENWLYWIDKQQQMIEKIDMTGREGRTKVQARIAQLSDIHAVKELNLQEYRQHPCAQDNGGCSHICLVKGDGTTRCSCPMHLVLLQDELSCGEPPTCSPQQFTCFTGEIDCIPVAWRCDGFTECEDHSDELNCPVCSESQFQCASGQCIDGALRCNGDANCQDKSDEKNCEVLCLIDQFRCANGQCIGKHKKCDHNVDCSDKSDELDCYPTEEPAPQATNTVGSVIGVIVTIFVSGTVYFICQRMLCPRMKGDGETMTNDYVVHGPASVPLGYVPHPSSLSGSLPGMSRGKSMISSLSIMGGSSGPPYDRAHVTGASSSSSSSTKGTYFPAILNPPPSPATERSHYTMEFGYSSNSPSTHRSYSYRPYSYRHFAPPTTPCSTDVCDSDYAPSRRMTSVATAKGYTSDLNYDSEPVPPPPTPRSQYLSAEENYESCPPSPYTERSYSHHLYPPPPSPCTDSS

B1: 5019-Fc-2539 (bispecific antibody, human IgG1)
chain: EVQLVESGGGLVQPGGSLRLSCAASGFNIGSSSIHWVRQAPGKGLEWVASIYSAFASTSYADSVKGRFTISADTSKNTAYLQMNSLRAEDTAVYYCARYHFPFGFALDYWGQGTLVTVSSGGGGSDIQMTQSPSSLSASVGDRVTITCRASQSVSSAVAWYQQKPGKAPKLLIYSASSLYSGVPSRFSGSRSGTDFTLTISSLQPEDFATYYCQQGVYLFTFGQGTKVEIKLEDKTHTKV[human IgG1 Fc with C220S (EU numbers) not printed]SGSETPGTSESATPESGGGEVQLVESGGGLVQPGGSLRLSCAASGFNISYSSIHWVRQAPGKGLEWVAYISSYYGYTYYADSVKGRFTISADTSKNTAYLQMNSLRAEDTAVYYCARAHYFPWAGAMDYWGQGTLVTVSSGGGGSDIQMTQSPSSLSASVGDRVTITCRASQSVSSAVAWYQQKPGKAPKLLIYSASSLYSGVPSRFSGSRSGTDFTLTISSLQPEDFATYYCQQYSWGPFTFGQGTKVEIK
notes: Homodimer on wild-type human IgG1 Fc; also called F^P+P-L6^3+3
- pBAR luciferase reporter, activation over background [1]: ~200 fold over background
- binding result (FZD7 CRD, Fc-tagged): binds
- binding result (FZD5 CRD, Fc-tagged): binds
- binding result (FZD4 CRD, Fc-tagged): binds

B2: 5019-Fc-2542 (bispecific antibody)
chain: EVQLVESGGGLVQPGGSLRLSCAASGFNIGSSSIHWVRQAPGKGLEWVASIYSAFASTSYADSVKGRFTISADTSKNTAYLQMNSLRAEDTAVYYCARYHFPFGFALDYWGQGTLVTVSSGGGGSDIQMTQSPSSLSASVGDRVTITCRASQSVSSAVAWYQQKPGKAPKLLIYSASSLYSGVPSRFSGSRSGTDFTLTISSLQPEDFATYYCQQGVYLFTFGQGTKVEIKLEDKTHTKV[human IgG1 Fc with C220S (EU numbers) not printed]SGSETPGTSESATPESGGGEVQLVESGGGLVQPGGSLRLSCAASGFNISSYYIHWVRQAPGKGLEWVASIYSSYGYTSYADSVKGRFTISADTSKNTAYLQMNSLRAEDTAVYYCARTVRGSKKPYFSGWAMDYWGQGTLVTVSSGGGGSDIQMTQSPSSLSASVGDRVTITCRASQSVSSAVAWYQQKPGKAPKLLIYSASSLYSGVPSRFSGSRSGTDFTLTISSLQPEDFATYYCQQYYWPITFGQGTKVEIK
notes: Homodimer on wild-type human IgG1 Fc; also called F^P+P-L6^1+1
- pBAR luciferase reporter, activation over background [1]: ~20 fold over background
- binding result (FZD7 CRD, Fc-tagged): binds

— US20210032352A1 (ANTERA THERAPEUTICS, published 2021)
